Over roughly 16,000 sequences, “Z-score” has its median near -0.37; the highest 2% begin near 3.2. The list shows a part of the results.
system: RBM10 RRM1-ZnF (GST-tagged construct); assay: RNAcompete 7-mer binding Z-score; higher = stronger binding preference
How it was run: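 In 1 ml Hepes pH 7.8 buffer with KCl, NaCl, glycerol, DTT, BSA and glutathione Sepharose beads, GST-tagged RBM10 constructs (20 pmol) were incubated for 30 min at 4°C with 1.5 nmol of a designed pool of 241 399 RNAs up to 41 nt. Four 2-min washes at 4°C followed, and bound RNA was detected by microarray hybridisation. Heptamer motif enrichment was expressed as a one-sided Z-score across probes containing each motif.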

| Sequence | RNAcompete 7-mer binding Z-score |
| --- | --- |
| CGCCUGU | -0.795 |
| UAUUUGC | -0.818 |
| CUGCUAU | -0.691 |
| UUGAACG | -0.139 |
| AAACGGC | -0.0544 |
| ACUCGGC | -0.62 |
| CGACUUC | -0.785 |
| CAAUGAU | -0.376 |
| CCCUCCA | -0.828 |
| AAGUUCG | -0.379 |
| AGACAGA | -0.0999 |
| UAAGGUC | 0.547 |
| AGGUUUU | 0.54 |
| UUUUAGC | -0.672 |
| UCUAGAU | -0.532 |
| UUAAGUG | 0.205 |
| CUACAAU | -0.698 |
| AUGGGGU | 3.92 |
| ACCUGCG | -0.591 |
| UUACCUC | -0.724 |
| GAUUAUG | 0.287 |
| CGGGCGG | 2.65 |
| CUUCCCG | -0.776 |

| Sequence | RNAcompete 7-mer binding Z-score |
| --- | --- |
| AGUUCUG | -0.509 |
| ACGGUUG | 1.78 |
| CCUGAAA | -0.72 |
| CCAAAAU | -0.854 |
| UCCUCGU | -0.591 |
| UCGGUAA | 0.124 |
| GGCCUGA | -0.412 |
| UCUGGUA | -0.435 |
| CGUCUAA | -0.48 |
| UCGACAA | -0.526 |
| AUCAAAU | -0.766 |
| GCUACGU | -0.22 |
| GAGACCA | -0.126 |
| CUCAUUC | -0.889 |
| UGGGGCG | 2.54 |
| CUGCAUU | -0.642 |
| GGUAUUC | 0.183 |
| GAAAUCU | -0.542 |
| CCUAAUC | -0.821 |
| GCACACU | -0.295 |
| AUAAAAC | -0.532 |
| CAAGCCC | -0.779 |
| AAAACCG | -0.626 |

| Sequence | RNAcompete 7-mer binding Z-score |
| --- | --- |
| AAAUAAG | 0.163 |
| CGGCAUC | -0.246 |
| GGCGCAC | 0.0528 |
| UAUGUGC | -0.00571 |
| CAUGUCC | -0.785 |
| AACCCAA | -0.714 |
| ACAACUU | -0.772 |
| UUUGCAU | -0.707 |
| UGGGCUA | 1.36 |
| UGUCGAA | -0.412 |
| UCGACAG | -0.428 |
| GGAAGAA | 2.04 |
| CGUUCUC | -0.688 |
| UGUUGCA | -0.305 |
| AAACAUC | -0.636 |
| ACUCUGA | -0.73 |
| ACUGCCA | -0.714 |
| AGAGUAG | 1.19 |
| AUGUACC | -0.409 |
| GCGACAC | -0.175 |
| UAGGGGG | 3.97 |
| GCCUGCC | -0.123 |
| UCACUGU | -0.522 |

| Sequence | RNAcompete 7-mer binding Z-score |
| --- | --- |
| UCUGAAG | -0.545 |
| UGCCUAU | -0.668 |
| UUCCACU | -0.798 |
| GCCUCGG | -0.0479 |
| ACAUUUC | -0.899 |
| GAGAGCU | 0.55 |
| AACAUGA | -0.298 |
| CCAGUGA | -0.438 |
| AACGUGC | -0.181 |
| CUGCCGC | -0.642 |
| GACGUGC | -0.201 |
| AUGAUAG | 0.794 |
| ACGGAUA | 1.61 |
| GACAAGU | 0.0885 |
| CUACGAA | -0.389 |
| UUCACAG | -0.617 |
| CUCUAAU | -0.694 |
| GCCGUCC | -0.444 |
| AUAAGCA | -0.152 |
| ACGCGGA | 0.498 |
| UACAUAU | -0.509 |
| GUACUAG | 0.108 |
| AUGUUGU | -0.162 |

Reference: the supplement of paper PMC5499739
